Biological target: CENP-U (human, UniProt Q71F23 1-418)
Test: cryo-EM structure

Chain of UniProt Q71F23 (Q71F23 whole entry): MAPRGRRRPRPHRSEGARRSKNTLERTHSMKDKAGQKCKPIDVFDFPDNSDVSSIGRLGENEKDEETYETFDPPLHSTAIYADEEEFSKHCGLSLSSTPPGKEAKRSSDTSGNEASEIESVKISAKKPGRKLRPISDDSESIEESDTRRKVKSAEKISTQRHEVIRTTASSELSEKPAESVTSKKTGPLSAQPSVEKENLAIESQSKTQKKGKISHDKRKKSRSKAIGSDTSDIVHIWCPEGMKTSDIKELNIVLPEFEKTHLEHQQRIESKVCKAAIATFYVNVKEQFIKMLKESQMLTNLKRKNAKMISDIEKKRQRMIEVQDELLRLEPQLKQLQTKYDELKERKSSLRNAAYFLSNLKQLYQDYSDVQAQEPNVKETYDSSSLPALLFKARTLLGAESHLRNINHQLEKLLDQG

B1: CENP-Q (natural protein)
chain: not shown
Does B1 bind?
Result: binds

From publication PMC7612757 (Science (New York, N.Y.), 2022)
